Assay results reported in PubChem BioAssay AID485297 (National Center for Advancing Translational Sciences (NCATS), 2010).
The whole screen tested about 320,000 compounds, of which about 9,100 (2.8%) were called active. This list was built around the results that the source calls inconclusive (neither active nor inactive); the mix of calls is not that of the screen. The call rests on the fitted dose curve; in most records, active means well fitted activation curve with a large enough effect; inconclusive means small, poorly fitted or top-dose-only effect; inactive means no such curve, though single readings can be large or run the other way. A potency beside an inconclusive call is a rough fit, not a confirmed value.

experiment: qHTS Assay for Rab9 Promoter Activators; details: Huh7 Rab9 promoter-luciferase reporter, luminescence, 24 h; series mostly up to 9.22 µM; activation, negative = inhibition: at the top concentration; further: nearly all actives have a fitted effect of over 60% in size; on activation, negative = inhibition: % of control where 0% means no effect
Procedure, shortened: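 Stable Rab9-luc Huh7, 1500 cells/well, 2 h settle; cmpd in DMSO, 24 h, 37 °C/5% CO2; luciferase reagent 10 min RT; luminescence.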
Potency means the concentration at half of the fitted maximal effect; tags describe the fitted curve by direction and shape.

Potency, inconclusive:
CCCc1ccc(OCc2ccc(C(=O)N3CCN(c4ccccn4)CC3)o2)c(OC)c1 5.62 µM [activator, single point], Cc1ccc(C(=O)N/N=C/c2ccoc2)cc1C 3.55 µM [activator, partial curve], Cc1ccccc1C(=O)O/N=C(\N)c1ccc([N+](=O)[O-])cc1 5.62 µM [activator, single point], S=C(Nc1ccc(Br)cc1)NC1CCCC1 5.62 µM [activator, single point], CCc1cc2c(=O)c(-c3nc(C)cs3)coc2cc1O 5.62 µM [activator, single point], CCOC(=O)c1nn(-c2ccc3c(c2)OCO3)cc1O 5.01 µM [activator, single point], Cc1sc(NC(=S)NC(=O)c2ccco2)c(C#N)c1C 3.16 µM [activator, single point], COC(=O)/C(=C1/Oc2ccc(C(C)(C)C)cc2S1)C(F)(F)F 3.98 µM [activator, single point], CCOC(=O)c1snc2c(=O)[nH]cnc12 5.01 µM [activator, single point], CC(/C=C/c1ccc2c(c1)OCO2)=N\NC(=O)c1ccccc1 3.98 µM [activator, partial curve], COc1ccccc1NC(=S)NNC(=O)c1ccccc1Br 3.55 µM [activator, single point], N#C/C(=C\c1ccc(OC(=O)c2ccc(Br)s2)cc1)c1nc2ccccc2[nH]1 5.62 µM [activator, single point], CCOC(=O)C1CCN(C(=O)c2cc3c(s2)-c2ccccc2OC3)CC1 2 µM [activator, partial curve], CN1CCN(c2ccc(-c3cccc(NC(=O)COc4ccc(Cl)cc4Cl)c3)nn2)CC1 0.355 µM [activator, full curve], CSc1ccc(/C=C/C(=O)c2c(O)cc(C)oc2=O)cc1 6.31 µM [activator, single point], CCc1c(C)nc2cc(-c3ccccc3)[nH]n2c1=O 3.55 µM [activator, partial curve], COc1ccccc1-c1cc(C(=O)NC2CCCC2)no1 3.55 µM [activator, single point], CC(=O)c1ccccc1C(=O)N1CCCC(C(=O)c2ccc(C(F)(F)F)cc2)C1 (stereo unspecified) 3.98 µM [activator, single point], COc1ccc(NC(=O)c2coc3ccccc23)cc1OC 6.31 µM [activator, single point], O=C(COc1ccccc1Cl)Nc1cccnc1 3.98 µM [activator, single point], COc1ccc(N2C(=O)c3ccccc3NC2(C)C)cc1 3.16 µM [activator, single point], O=C(c1ccccc1O)N1N=C(c2ccccc2)CC1(O)C(F)(F)F (stereo unspecified) 5.62 µM [activator, single point], CCCn1c(=N)n(CC(=O)c2ccc(Cl)c(Cl)c2)c2ccccc21 4.47 µM [activator, single point], COCCn1c(C)cc(C(=O)COC(=O)c2ccc[nH]c2=O)c1C 2 µM [activator, partial curve], CN(C)S(=O)(=O)Oc1cccc(C(=O)Nc2ccc(Cl)cc2)c1 0.708 µM [activator, single point], O=C(CCS(=O)(=O)c1ccccc1)N(CCCN1CCOCC1)c1nc2ccccc2s1 1.26 µM [activator, partial curve], CCC(C)n1c(-c2cccc(S(=O)(=O)N3CCOCC3)c2)n[nH]c1=S (stereo unspecified) 1 µM [activator, single point], O=C(/C=C/c1ccccc1)OCC(=O)c1ccc[nH]1 3.55 µM [activator, single point], CCC(C)(C)c1ccc(Oc2cccc(C(=O)O)c2)cc1 0.891 µM [activator, partial curve], Cc1ccc(SCc2cn3cc(Cl)ccc3n2)cc1 3.16 µM [activator, single point], Cc1ccc(C(=O)CCC2CCCC2=O)cc1 (stereo unspecified) 2.51 µM [activator, partial curve], CCC(=O)Nc1nnc(/C=C/c2ccc(OC)cc2)s1 3.55 µM [activator, partial curve], Cc1sc(NC(=O)c2ccc(Cl)s2)c(C(N)=O)c1C 5.62 µM [activator, single point], O=C(Nc1ccc(F)c(F)c1)c1ccccc1 3.55 µM [activator, partial curve], CS(=O)(=O)c1ccc2nc(NC(=O)c3ccccc3Br)sc2c1 0.794 µM [activator, partial curve], CC(=O)c1c(C)[nH]c(C(=O)NCCc2cccc(C)c2)c1C 2.82 µM [activator, partial curve], O=C(Cc1c[nH]c2ccccc12)Nc1nc2ccccc2[nH]1 3.16 µM [activator, partial curve], COCCn1c(C)cc(C2=NNC(=Nc3ccc(OC)cc3)SC2)c1C 2.24 µM [activator, partial curve], COc1cc(OC)cc(-c2nc(-c3cccs3)no2)c1 3.98 µM [activator, partial curve], O=C(O)c1ccc(-c2nc(-c3ccccc3Cl)cs2)cc1 2.82 µM [activator, partial curve], CN1CCN(c2nc(-c3ccc(C(C)(C)C)cc3)nc3ccccc23)CC1 3.55 µM [activator, partial curve], Cc1ccc(S(=O)(=O)N(C)c2ccc(C(=O)NCCc3ccccc3)cc2)cc1 2.82 µM [activator, partial curve], O=C(N/N=C/c1ccc(-c2ccc(Br)cc2)o1)c1ccc2c(c1)OCO2 5.01 µM [activator, single point], O=C(NCC1CCCO1)c1cc2ccccc2nc1Cl (stereo unspecified) 1.12 µM [activator, partial curve, poor fit], COc1ccc(CNc2ccc3c(c2)nc(C)n3C)cc1OC 3.55 µM [activator, partial curve], Cc1ccc(C(=O)NC(=S)Nc2ccc3c(c2)OCCO3)c(C)c1 5.62 µM [activator, single point]

Potency, active:
O=c1nc2c(-c3ccccc3F)n[nH]n2c2ccccc12 3.98 µM, CC(C)c1nnc(NC(=O)c2ccc3c(c2)OCO3)s1 0.282 µM, COC(=O)c1ccc(N/C=C/C(=O)c2ccccc2)cc1 0.501 µM, CC(C)c1cc(C(=O)Nc2cccc(Cl)c2)no1 0.891 µM, O=C(O)c1cccc(NC(=S)N/N=C/c2c[nH]c3ccccc23)c1 3.55 µM, COc1ccc(C2=Nc3cc(C)ccc3OC2)cc1 0.562 µM, CCN1CCN(C(=O)c2cc3c(s2)-c2c(C)cccc2OC3)CC1 3.98 µM, C/C(N)=C(/C#N)C(=O)CSc1nnc(-c2ccc(OC(F)F)cc2)o1 1.26 µM, Cc1cc(C(=O)COC(=O)c2n[nH]c3ccccc23)c(C)n1C 0.501 µM, O=C(Nc1nnc(-c2ccccc2F)s1)c1cccnc1 2 µM, Cc1nnc2n(c1=O)N=C(c1ccc(Cl)cc1)CS2 0.501 µM, Cc1c(O)ccc(/C=N/Nc2ncccc2[N+](=O)[O-])c1O 3.16 µM, COc1ccccc1C(=O)Nc1ccc2c(c1)OCCO2 1.78 µM, CC(=O)Nc1ccc2c(c1)ncn2-c1ccc(C)cc1 1.78 µM

activation, negative = inhibition, inactive:
CCN(CC)S(=O)(=O)c1cccc(C(=O)Nc2ccc(Cl)cn2)c1 22.9%, C/C(=N\NC(=O)c1cc2c(s1)CCC(C)C2)c1ccncc1 (stereo unspecified) 13%, Cc1ccccc1OCCn1c(=O)sc2ccccc21 0.204%, CCN1C(=O)CC(N2CCC(Cc3ccccc3)CC2)C1=O (stereo unspecified) -6.01%, COC(=O)c1ccc(NC(=O)CSc2nc3ccccc3c(=O)[nH]2)cc1 -0.895%, Fc1cccc(CSc2ccc(-c3ccc4c(c3)OCO4)nn2)c1 17.1%, CCOC(=O)C(=Nc1ccc(Cl)cc1)NO 1.06%, COC(=O)CCNC(=O)c1nn(Cc2ccccc2)c(=O)c2ccccc12 0.176%, CC(c1ccccc1)N1C(=O)c2ccc(C(=O)Nc3ccc(Br)cc3C(=O)O)cc2C1=O (stereo unspecified) -1.86%, O=C(NCCO)c1ccc(CSc2nc3ccccc3[nH]2)cc1 21.4%, CCOc1cc(Cl)c(S(=O)(=O)NCCCN2CCOCC2)cc1Cl -6.95%, O=C(COc1ccc2ccccc2c1)NNC(=O)Cc1cccc2ccccc12 -0.153%, CC(C)c1cc(C(=O)NNC(=S)NCc2ccco2)c(O)c(C(C)C)c1 2.51%, COc1ccccc1N1Cc2ccc(OC)c(OC)c2C1=O 1.79%, Cc1ccsc1CNCc1cc(Cl)ccc1O -0.0589%, CCOC(=O)N1CC=C2C(C#N)=C(N)C(C#N)(C#N)[C@H](c3ccccc3OCC)[C@H]2C1 0.365%
